These results are taken from article PMC4336329 (PLoS ONE, 2015).

Each structure is given as a SMILES string. Out of some 310,000 compounds screened, about 14,000 (4.5%) showed an effect of 50% or more. The effect is printed as a negative number. Some of the results follow.
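Note: peak tail current of the secondary pulse compared with the same well before compound.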

Sequence of human ether-à-go-go-related gene (hERG) potassium channel (Q12809 whole entry, looked up): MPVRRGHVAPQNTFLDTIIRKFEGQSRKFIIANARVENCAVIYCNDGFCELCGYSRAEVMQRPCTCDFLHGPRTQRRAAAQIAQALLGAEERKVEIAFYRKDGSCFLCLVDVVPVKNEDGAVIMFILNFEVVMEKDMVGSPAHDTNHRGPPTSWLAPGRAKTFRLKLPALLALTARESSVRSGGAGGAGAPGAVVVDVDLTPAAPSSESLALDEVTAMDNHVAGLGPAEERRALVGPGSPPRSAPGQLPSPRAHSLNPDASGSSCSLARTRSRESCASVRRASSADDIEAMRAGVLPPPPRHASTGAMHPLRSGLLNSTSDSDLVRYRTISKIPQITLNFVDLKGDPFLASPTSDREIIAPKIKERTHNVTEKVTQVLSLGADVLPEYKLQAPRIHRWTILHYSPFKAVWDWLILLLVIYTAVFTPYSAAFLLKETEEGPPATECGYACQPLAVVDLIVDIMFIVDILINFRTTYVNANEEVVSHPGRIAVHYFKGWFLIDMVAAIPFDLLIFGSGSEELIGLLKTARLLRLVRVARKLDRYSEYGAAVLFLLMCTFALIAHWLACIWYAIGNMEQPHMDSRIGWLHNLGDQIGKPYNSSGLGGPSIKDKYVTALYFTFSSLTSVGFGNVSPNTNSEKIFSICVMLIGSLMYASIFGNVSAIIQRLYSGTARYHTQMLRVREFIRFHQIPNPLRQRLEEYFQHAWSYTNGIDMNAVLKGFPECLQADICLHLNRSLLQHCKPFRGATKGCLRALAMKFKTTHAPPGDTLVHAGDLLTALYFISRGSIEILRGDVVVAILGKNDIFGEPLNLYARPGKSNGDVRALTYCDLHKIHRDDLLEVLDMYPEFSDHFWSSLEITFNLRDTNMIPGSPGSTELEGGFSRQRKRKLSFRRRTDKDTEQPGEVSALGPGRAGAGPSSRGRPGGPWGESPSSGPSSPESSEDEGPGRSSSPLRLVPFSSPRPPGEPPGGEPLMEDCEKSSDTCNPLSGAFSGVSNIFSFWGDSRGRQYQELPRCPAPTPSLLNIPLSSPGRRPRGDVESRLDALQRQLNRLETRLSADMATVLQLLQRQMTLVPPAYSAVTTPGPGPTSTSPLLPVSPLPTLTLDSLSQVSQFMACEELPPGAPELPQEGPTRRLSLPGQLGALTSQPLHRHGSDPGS

This test concerns the target human ether-à-go-go-related gene (hERG) potassium channel (human, UniProt Q12809). Kind of test: primary screen, population patch clamp on CHO cells stably expressing hERG.
As for `Cc1c(C(=O)C(=O)NCCc2ccc(S(N)(=O)=O)cc2)c2ccccc2n1C`, the “hERG current change (%, negative = inhibition) at 10uM” value was -13.4%. As for `COc1ccc(-c2csc(CCn3nc(C)cc3C)n2)cc1`, the figure is 4.1%. As for `CCCCc1ccc(NC(=O)CSc2nc3ncccc3[nH]2)cc1`, the figure is 8.18%; as for `Cc1cc(-c2n[nH]c(=S)n2Cc2ccco2)nn1C`, 12.3%; as for `O=C1CCSc2ccc(Cl)cc2N1Cc1cccc(Cl)c1`, -11.7%. As for `CC(C)NC(=O)COCc1cc(-c2ccc3c(c2)OCO3)on1`, the figure is 5.76%. For `COc1cc(S(=O)(=O)N2CCC(c3nc4ccccc4s3)CC2)ccc1S(=O)(=O)NC1CCCC1`, the “hERG current change (%, negative = inhibition) at 10uM” value is given as -0.551%. As to `CN1C(=O)c2c(sc3c2CCCC3)NC1c1ccccc1O` (stereo not drawn), the “hERG current change (%, negative = inhibition) at 10uM” value is 16.4%. With `O=C(OC1CCc2ccccc2C1=O)c1ccccc1O` (stereo not drawn) the figure was 0.0313%; with `CSCC[C@H](NC(=O)[C@H](Cc1ccccc1)n1c(=O)[nH]c2ccccc2c1=O)C(=O)NCC1CCC(C(=O)O)CC1` (stereo partly drawn), 19.1%.

In the case of `O=C(CSc1nnc(NC2CC2)s1)Nc1ccc(N2CCOCC2)cc1`, the “hERG current change (%, negative = inhibition) at 10uM” value is -23.2%. Take `Cc1ncc2c(c1OC(=O)c1ccccc1)COC(C)(C)OC2`: the “hERG current change (%, negative = inhibition) at 10uM” value is -6.46%. As for `O=C(O)[C@H]1CCCN1S(=O)(=O)c1cccc2cccnc12`, the figure is 0.132%; as for `COc1ccc(-c2cc(-c3cccs3)c(C#N)c(SCC(=O)NCc3ccccc3OC)n2)cc1`, -5.25%; as for `Cc1cccc(NC(=O)NC(=S)NC(=O)c2ccccc2)c1`, 3.41%.

With `CCN(Cc1cccs1)C(=O)CN1C(=O)NC2(CCCc3ccccc32)C1=O` (stereo not drawn), the “hERG current change (%, negative = inhibition) at 10uM” value was -2.16%. On to `O=S(=O)(c1ccc(Br)s1)N1CCN(c2ccc(F)cc2)CC1`, for which the “hERG current change (%, negative = inhibition) at 10uM” value was 25.1%. As for `COc1ccc(NC(=O)CCn2c(=S)[nH]c3ccccc3c2=O)cc1`, the figure is 22.3%; as for `O=C(O)c1cc(S(=O)(=O)O)cc(Nc2c3ccccc3nc3ccccc23)c1O`, 14.6%. With `NC(=O)c1nn2c(C(F)(F)F)cc(-c3ccccc3)nc2c1Br` the figure was -0.764%. `COc1cccc(NS(=O)(=O)c2ccc3c(c2)C2C=CCC2C(c2ccc(C(=O)O)cc2)N3)c1` (stereo not drawn): the “hERG current change (%, negative = inhibition) at 10uM” value came out at 4.09%. Turning to `Cc1ccc(CCNC(=O)c2nnn(-c3cc(C)cc(C)c3)c2N)cc1`, the “hERG current change (%, negative = inhibition) at 10uM” value is reported as 10.5%. As for `CC(Sc1nnc2c(n1)C1(C)CCC2C1(C)C)C(=O)Nc1ccccc1` (stereo not drawn), the figure is -25.5%; as for `COc1ccc2sc3ccccc3c(=O)c2c1OC`, 17.5%. Regarding `CCOC(=O)C1=C(N)Oc2cc(O)ccc2C1c1cccnc1` (stereo not drawn), the “hERG current change (%, negative = inhibition) at 10uM” value is -11.4%. As for `CC(=O)Nc1ccc(C(=O)Nc2nc(-c3cccnc3)cs2)cc1`, the figure is 16.7%.

For the compound `CCOc1ccc(C2CC(c3cccc(Cl)c3)n3nc(N)nc3N2)cc1` (stereo not drawn), the “hERG current change (%, negative = inhibition) at 10uM” value came out at 0.107%.

With `CN(C)c1cc2c(cc1NS(=O)(=O)c1ccccc1)n(C)c(=O)n2C`, the “hERG current change (%, negative = inhibition) at 10uM” value amounted to 10.5%. Consider `O=S(=O)(Cc1ccc(Cl)cc1)N1CCN(c2ncccn2)CC1`, for which the “hERG current change (%, negative = inhibition) at 10uM” value came out at 13.2%. With `O=C(CCCn1cnc([N+](=O)[O-])n1)Nc1ccc(Cl)cc1Cl` the figure was -26.6%; with `Cc1cc(C(=O)CS(=O)c2ccc(F)cc2)cc(C)c1OC(=O)N(C)C` (stereo not drawn), 16.7%; with `O=C(NC1CS(=O)(=O)CC1NCc1ccccc1)c1ccccc1` (stereo not drawn), 8.11%. On to `COc1ccccc1CC(=O)Nc1ccc(C(=O)N2CCCCC2)cc1`, for which the “hERG current change (%, negative = inhibition) at 10uM” value came out at 2.21%. Take `O=C(c1c(F)cccc1F)N(Cc1cccs1)C1CCCC1`: the “hERG current change (%, negative = inhibition) at 10uM” value is 7.71%. With `NC1=NC(c2ccc([N+](=O)[O-])cc2)N(c2ccc(F)cc2)C(N)=N1` (stereo not drawn), the “hERG current change (%, negative = inhibition) at 10uM” value is recorded as 13.8%.

`CC(C)(C)OC(=O)CC1(C#N)c2ccccc2C(Br)=CN1C(=O)c1ccccc1` (stereo not drawn): the “hERG current change (%, negative = inhibition) at 10uM” value is given as 8.71%. In the case of `O=C1NC(Cc2ccccc2)C(=O)N1CC(=O)N1CCCc2ccccc21` (stereo not drawn), the “hERG current change (%, negative = inhibition) at 10uM” value was determined as 6.98%. For the compound `Cc1ccc(S(=O)(=O)N2CCOCC2)cc1C(=O)OCC(=O)Nc1ccc2c(c1)OCO2`, the “hERG current change (%, negative = inhibition) at 10uM” value was -10.9%. For `CC(NC(=O)CN1C(=O)NC(Cc2ccccc2)(Cc2ccccc2)C1=O)C12CC3CC(CC(C3)C1)C2` (stereo not drawn), the “hERG current change (%, negative = inhibition) at 10uM” value is listed as 3.65%. For `CCOC(=O)COc1cc(=O)n(CC)c2ccccc12`, the “hERG current change (%, negative = inhibition) at 10uM” value was 3.92%. As for `c1ccc(-n2c(-c3ccncc3)nnc2-c2cccs2)cc1`, the “hERG current change (%, negative = inhibition) at 10uM” value is -12.4%. With `CCN1C(=O)N[C@@H](c2cccc(F)c2)C(C(=O)OC)=C1C` the figure was 9.28%; with `COc1ccc(NC(=O)c2ccco2)cc1NC(=O)c1ccco1`, -27.3%; with `CN1CCN(CCc2nc3cc(NC(=O)COc4ccc([N+](=O)[O-])cc4)ccc3n2C)CC1`, 16.1%. As for `COc1ccc(Cl)cc1N/C(N)=N/c1nc(C)cc(C)n1`, the figure is -84.2%.
